# Measured values as given in PubChem BioAssay (NCATS).
# This list was built around the results that the source calls inconclusive (neither active nor inactive); the mix of calls is not that of the screen. For some assays here: Potencies of inconclusive entries are left out as doubtful fits. Calls of active or inactive are those of the source. Calls follow the shape of the dose curve; as a rule, active = well fitted curve in the direction sought with a large enough effect; inconclusive = small, poorly fitted or top-dose-only effect, or another doubt; inactive = no such curve, though single readings can be large; an effect the other way counts as inactive or inconclusive.
# How the values were obtained:
# [1] = qHTS for differential inhibitors of proliferation of Plasmodium falciparum line D10 (AID 1877);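 also: potency is read from the fitted curve at half-maximal effect; parasites grown with compound for 72 h before DNA staining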
# [2] = target: DNA polymerase III PolC-type (Bacillus subtilis (strain 168)) (UniProt P13267); test: qHTS Validation Assay for the Inhibitors of DNA Replication in Gram-Positive Bacteria (AID 485295);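 also: PicoGreen fluorescence of double-stranded DNA made on primed circular M13 template; 0% = DMSO wells and -100% = EDTA-quenched background wells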
# Summary of the method: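 Reconstituted B. subtilis Pol III holoenzyme (PolC, beta clamp, SSB, primase) preincubated with compound, then M13Gori single-stranded circular template with dNTPs/NTPs added; room temperature reaction. Stopped with EDTA/PicoGreen; dsDNA fluorescence read, EDTA as full-inhibition control.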
# [3] = qHTS of Trypanosoma Brucei Inhibitors: LOPAC Validation (AID 624147); conditions: purified enzyme assay, luminescence, 45 min; at 57.5 µM (top of the series); also: 0% is about no effect
# Summary of the method: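 Screened from lowest to highest concentration, compounds were pinned into TbPYK/substrate mixtures, and ADP (130 uM final) was added. Plates sat at room temperature for 45 min prior to Kinase-Glo Plus detection by luminescence.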
# [4] = target: ATP-dependent 6-phosphofructokinase (Trypanosoma brucei brucei) (UniProt O15648); test: qHTS Assay to Find Inhibitors of T. brucei phosphofructokinase: hit validation (AID 492961); also: potency is read from the fitted curve at half-maximal effect
# Summary of the method: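 ADP-Glo luminescence read-out of ADP formed by 1.25 nM PFK from 0.1 mM ATP and 0.5 mM F6P (TEA pH 8.0, 45 min, RT). Compounds titrated; activity normalized to no-enzyme and full-enzyme controls.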
# [5] = target: Tyrosyl-DNA phosphodiesterase 1 (Homo sapiens) (UniProt Q9NUW8); test: Confirmation Assay for Inhibitors of Tyrosyl-DNA Phosphodiesterase (TDP1) (AID 489007); conditions: recombinant human TDP1 enzymatic activity, dose-response; also: potency is read from the fitted curve at half-maximal effect; nearly all actives have a fitted effect of over 40% in size
# Summary of the method: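 Tdp1 1 nM + cpd, 15 min RT; add biotin/phosphotyrosine-FITC oligo 15 nM, 5 min RT; add AS donor/acceptor beads 10 ug/ml, 10 min RT; read AlphaScreen. No-enzyme wells = max signal.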
# [6] = qHTS of pediatric cancer cell lines to identify multiple opportunities for drug repurposing: Confirmatory screen for A673 cells (AID 1347110);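 also: potency is read from the fitted curve at half-maximal effect; cells exposed to compound for 48 h before the viability read; nearly all actives have a fitted effect of over 65% in size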
# Summary of the method: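 A673 cells at 500-1,000 cells/well were dosed 5 h after plating, in dilution series up to 46 uM final; primary runs used 8 or 11 points and confirmatory runs used 11 points. Viability was read by CellTiter-Glo luminescence after 48 h, against DMSO and 2.3 uM bortezomib controls.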
# [7] = qHTS of pediatric cancer cell lines to identify multiple opportunities for drug repurposing: Confirmatory screen for BT-12 cells (AID 1347112);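 also: potency is read from the fitted curve at half-maximal effect; viability read after 48 h of compound exposure; nearly all actives have a fitted effect of over 55% in size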
# Summary of the method: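 Cells (500-1,000/well) rested 5 h, then received compounds for 48 h; metabolically active cells were measured by CellTiter-Glo luminescence. Final concentrations spanned up to 46 µM (MIPE, 11-point) or 0.59 nM-46 µM (NPC, 8-point) in primary screens, 11-point in follow-ups.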
# [8] = qHTS of pediatric cancer cell lines to identify multiple opportunities for drug repurposing: Confirmatory screen for SJ-GBM2 cells (AID 1347116); also: potency is read from the fitted curve at half-maximal effect; nearly all actives have a fitted effect of over 60% in size
# Summary of the method: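 Viability measured as metabolically active cells via CellTiter-Glo luminescence following 48 hours of compound exposure, 11-point dilutions in confirmatory testing. 500-1,000 cells/well plated 5 hours before dosing; controls were DMSO and 2.3 µM bortezomib.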
# [9] = Cell Proliferation Assay against the TMD8 Cell Line (Caspase readout at 16 hrs) (AID 651712); conditions: TMD8 lymphoma cells, caspase activation luminescence; caspase activation: at 46.1 µM (top of the series); also: potency is read from the fitted curve at half-maximal effect
# Summary of the method: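 Apoptotic response of TMD8 cells was judged from caspase 3/7 activation following a 16 hour compound incubation at 37 °C. Luminescent signal was converted to percent activity, with DMSO set as 0% and 9.2 uM final bortezomib as 100%.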
# [10] = Quantitative High-Throughput drug screen in 47 multiple myeloma cell lines against the NCATS MIPE library collection: FR4_PLB cell viability assay (AID 1918924; also: potency is read from the fitted curve at half-maximal effect; nearly all actives have a fitted effect of over 35% in size)
# Summary of the method: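 Luminescent ATP measurement with CellTiter-Glo gives viability, scaled between DMSO-only wells (100%) and media-only wells (0%). Cells, 500 per well, faced library compounds for 48 hours at 37C.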
# [11] = Quantitative High-Throughput drug screen in 47 multiple myeloma cell lines against the NCATS MIPE library collection: NCIH929_DSMZ cell viability assay (AID 1918978); also: nearly all actives have a fitted effect of over 35% in size
# Summary of the method: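 Inhibition of viability over 48 h was scored by ATP content (CellTiter-Glo) in 500-cell wells. Zero and full viability were defined by media-only and DMSO-only wells.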
# [12] = qHTS profiling for inhibitors of Plasmodium falciparum proliferation (AID 504749); also: potency is read from the fitted curve at half-maximal effect; nearly all actives have a fitted effect of over 60% in size; conditions: P. falciparum in erythrocytes, SYBR Green DNA, 72 h; parasite line A
# Summary of the method: (§1)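 Infected RBCs, 0.3% parasitemia/2.5% Hct final; cpd 72 h, 37 C, 5% CO2; lysis buffer with saponin/triton/SYBR Green I, o/n RT dark; FI 485/535; norm. to artemisinin (0.29 uM) and DMSO.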
# [13] = target: Rap guanine nucleotide exchange factor 3 (Homo sapiens) (UniProt O95398); test: Confirmatory qHTS for antagonist of cAMP-regulated guanine nucleotide exchange factor 3 (EPAC1) (AID 1645880); also: potency is read from the fitted curve at half-maximal effect; nearly all actives have a fitted effect of over 55% in size
# Summary of the method: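 Nucleotide exchange uses 100 nM EPAC1, 250 nM RAP1B-BODIPY-GDP and 50 uM GDP, with compounds in a concentration-titration series. After 5 min at room temperature, fluorescence (480 nm ex/540 nm em) is read every 5 min for 30 min. Data are normalized to control ATA and DMSO.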
# [14] = target: Rap guanine nucleotide exchange factor 4 (Homo sapiens) (UniProt Q8WZA2); test: Confirmatory qHTS for antagonist of cAMP-regulated guanine nucleotide exchange factor 4 (EPAC2) (AID 1645885); also: potency is read from the fitted curve at half-maximal effect; nearly all actives have a fitted effect of over 25% in size
# [15] = system: ECU; test: qHTS profiling for inhibitors of Plasmodium falciparum proliferation (AID 504749); also: potency is read from the fitted curve at half-maximal effect; nearly all actives have a fitted effect of over 60% in size; conditions: P. falciparum in erythrocytes, SYBR Green DNA, 72 h; series mostly up to 28.7 µM
# Summary of the method: as §1
# [16] = system: HB3; test: as above; conditions: P. falciparum in erythrocytes, SYBR Green DNA, 72 h; series mostly up to 28.7 µM
# Summary of the method: as §1
# [17] = P-glycoprotein substrates identified in KB-3-1 adenocarcinoma cell line, qHTS therapeutic library screen (AID 1346986); conditions: KB-3-1 parental cells viability, CellTiter-Glo, 72 h;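 also: potency is read from the fitted curve at half-maximal effect; potency is for cytotoxicity meaning loss of cell viability; nearly all actives have a fitted effect of over 60% in size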
# Summary of the method: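 Cells seeded 500/well in DMEM/10% FCS; compounds pinned in dose-response; 72 h incubation; CellTiter-Glo added, 5 min, luminescence. KB-8-5-11 run ±tariquidar to test reversal of P-gp resistance.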
# [18] = qHTS of pediatric cancer cell lines to identify multiple opportunities for drug repurposing: Confirmatory screen for SK-N-MC cells (AID 1347111);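 also: potency is read from the fitted curve at half-maximal effect; cells exposed to compound for 48 h before the readout; nearly all actives have a fitted effect of over 70% in size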
# Summary of the method: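 Seed 500-1,000 cells/well; rest 5 h at 37 degrees C. Pin-transfer compounds, 11-point titration. Incubate 48 h. Add CellTiter-Glo, 15 min RT, read luminescence.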
# [19] = Quantitative High-Throughput drug screen in 47 multiple myeloma cell lines against the NCATS MIPE library collection: INA6_PLB cell viability assay (AID 1918965; also: potency is read from the fitted curve at half-maximal effect; nearly all actives have a fitted effect of over 55% in size)
# Summary of the method: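 Steps: seed 500 cells per well; pin-transfer MIPE 4.0 library; incubate 48 h at 37C, 5% CO2, humidified; add CellTiter-Glo, 5 min room temperature; read luminescence.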
# [20] = Quantitative High-Throughput drug screen in 47 multiple myeloma cell lines against the NCATS MIPE library collection: H1112_PLB cell viability assay (AID 1918967; also: potency is read from the fitted curve at half-maximal effect; nearly all actives have a fitted effect of over 30% in size)
# Summary of the method: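 Approved and investigational drugs from MIPE 4.0 were added by pin tool to 500 cells per well. After 48 hours at 37C, ATP-based CellTiter-Glo luminescence indicated remaining viability.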
# Tags tell the direction and shape of the fitted curve.
# Chain of UniProt O15648 (O15648 whole entry, looked up): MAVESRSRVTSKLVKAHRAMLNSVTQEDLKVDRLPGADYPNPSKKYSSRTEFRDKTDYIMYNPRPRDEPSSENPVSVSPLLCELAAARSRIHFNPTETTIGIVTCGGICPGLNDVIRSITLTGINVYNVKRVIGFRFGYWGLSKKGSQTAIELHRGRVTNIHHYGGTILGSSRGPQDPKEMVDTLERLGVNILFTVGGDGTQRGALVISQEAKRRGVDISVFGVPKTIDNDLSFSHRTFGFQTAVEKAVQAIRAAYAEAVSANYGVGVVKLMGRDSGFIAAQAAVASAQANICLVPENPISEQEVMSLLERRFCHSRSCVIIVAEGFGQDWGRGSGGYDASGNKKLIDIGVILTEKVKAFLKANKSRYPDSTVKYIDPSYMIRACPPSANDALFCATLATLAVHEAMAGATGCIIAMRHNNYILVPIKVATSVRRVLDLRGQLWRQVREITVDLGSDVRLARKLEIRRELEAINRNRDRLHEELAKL
# Chain of UniProt Q9NUW8 (Q9NUW8 whole entry, looked up): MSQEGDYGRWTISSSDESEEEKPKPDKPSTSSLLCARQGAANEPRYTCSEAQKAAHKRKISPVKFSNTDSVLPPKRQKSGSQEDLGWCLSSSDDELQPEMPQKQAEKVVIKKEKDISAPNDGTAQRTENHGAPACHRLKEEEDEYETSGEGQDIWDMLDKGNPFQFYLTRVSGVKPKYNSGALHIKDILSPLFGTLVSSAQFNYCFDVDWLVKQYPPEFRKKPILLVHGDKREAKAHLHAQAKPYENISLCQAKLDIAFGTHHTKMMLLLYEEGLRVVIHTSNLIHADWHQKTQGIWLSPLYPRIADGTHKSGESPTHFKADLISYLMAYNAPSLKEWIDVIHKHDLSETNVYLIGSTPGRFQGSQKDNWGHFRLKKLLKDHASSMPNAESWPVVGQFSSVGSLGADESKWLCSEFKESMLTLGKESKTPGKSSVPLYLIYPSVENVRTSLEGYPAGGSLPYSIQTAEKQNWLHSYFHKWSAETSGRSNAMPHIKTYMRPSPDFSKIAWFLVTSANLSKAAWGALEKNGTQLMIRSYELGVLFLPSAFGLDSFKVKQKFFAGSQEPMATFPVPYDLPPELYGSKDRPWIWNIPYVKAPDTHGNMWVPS
# Chain of UniProt O95398 (O95398 whole entry, looked up): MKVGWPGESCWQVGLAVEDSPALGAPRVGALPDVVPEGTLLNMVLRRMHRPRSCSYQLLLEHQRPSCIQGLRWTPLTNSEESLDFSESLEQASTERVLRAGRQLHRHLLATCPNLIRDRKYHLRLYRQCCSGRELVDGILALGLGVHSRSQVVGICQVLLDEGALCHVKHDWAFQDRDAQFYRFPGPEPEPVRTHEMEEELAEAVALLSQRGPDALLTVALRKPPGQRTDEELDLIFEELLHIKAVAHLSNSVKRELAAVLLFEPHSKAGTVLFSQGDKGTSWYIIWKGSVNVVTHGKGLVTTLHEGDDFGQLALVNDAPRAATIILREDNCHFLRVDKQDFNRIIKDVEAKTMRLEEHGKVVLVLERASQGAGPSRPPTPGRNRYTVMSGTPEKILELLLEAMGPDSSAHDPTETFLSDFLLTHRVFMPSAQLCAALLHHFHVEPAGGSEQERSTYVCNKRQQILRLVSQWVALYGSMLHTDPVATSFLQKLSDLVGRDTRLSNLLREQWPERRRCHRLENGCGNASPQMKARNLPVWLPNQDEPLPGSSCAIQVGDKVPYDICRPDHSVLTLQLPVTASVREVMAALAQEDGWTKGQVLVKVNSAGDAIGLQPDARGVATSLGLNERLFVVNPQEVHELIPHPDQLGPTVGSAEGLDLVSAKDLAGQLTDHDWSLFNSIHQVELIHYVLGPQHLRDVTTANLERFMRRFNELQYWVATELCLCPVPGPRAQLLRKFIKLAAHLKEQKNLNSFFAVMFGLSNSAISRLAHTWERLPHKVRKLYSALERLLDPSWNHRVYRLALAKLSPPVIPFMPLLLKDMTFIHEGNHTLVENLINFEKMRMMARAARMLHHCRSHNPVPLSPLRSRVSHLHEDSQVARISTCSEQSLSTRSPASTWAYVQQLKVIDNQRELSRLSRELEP
# Chain of UniProt P13267 (P13267 whole entry, looked up): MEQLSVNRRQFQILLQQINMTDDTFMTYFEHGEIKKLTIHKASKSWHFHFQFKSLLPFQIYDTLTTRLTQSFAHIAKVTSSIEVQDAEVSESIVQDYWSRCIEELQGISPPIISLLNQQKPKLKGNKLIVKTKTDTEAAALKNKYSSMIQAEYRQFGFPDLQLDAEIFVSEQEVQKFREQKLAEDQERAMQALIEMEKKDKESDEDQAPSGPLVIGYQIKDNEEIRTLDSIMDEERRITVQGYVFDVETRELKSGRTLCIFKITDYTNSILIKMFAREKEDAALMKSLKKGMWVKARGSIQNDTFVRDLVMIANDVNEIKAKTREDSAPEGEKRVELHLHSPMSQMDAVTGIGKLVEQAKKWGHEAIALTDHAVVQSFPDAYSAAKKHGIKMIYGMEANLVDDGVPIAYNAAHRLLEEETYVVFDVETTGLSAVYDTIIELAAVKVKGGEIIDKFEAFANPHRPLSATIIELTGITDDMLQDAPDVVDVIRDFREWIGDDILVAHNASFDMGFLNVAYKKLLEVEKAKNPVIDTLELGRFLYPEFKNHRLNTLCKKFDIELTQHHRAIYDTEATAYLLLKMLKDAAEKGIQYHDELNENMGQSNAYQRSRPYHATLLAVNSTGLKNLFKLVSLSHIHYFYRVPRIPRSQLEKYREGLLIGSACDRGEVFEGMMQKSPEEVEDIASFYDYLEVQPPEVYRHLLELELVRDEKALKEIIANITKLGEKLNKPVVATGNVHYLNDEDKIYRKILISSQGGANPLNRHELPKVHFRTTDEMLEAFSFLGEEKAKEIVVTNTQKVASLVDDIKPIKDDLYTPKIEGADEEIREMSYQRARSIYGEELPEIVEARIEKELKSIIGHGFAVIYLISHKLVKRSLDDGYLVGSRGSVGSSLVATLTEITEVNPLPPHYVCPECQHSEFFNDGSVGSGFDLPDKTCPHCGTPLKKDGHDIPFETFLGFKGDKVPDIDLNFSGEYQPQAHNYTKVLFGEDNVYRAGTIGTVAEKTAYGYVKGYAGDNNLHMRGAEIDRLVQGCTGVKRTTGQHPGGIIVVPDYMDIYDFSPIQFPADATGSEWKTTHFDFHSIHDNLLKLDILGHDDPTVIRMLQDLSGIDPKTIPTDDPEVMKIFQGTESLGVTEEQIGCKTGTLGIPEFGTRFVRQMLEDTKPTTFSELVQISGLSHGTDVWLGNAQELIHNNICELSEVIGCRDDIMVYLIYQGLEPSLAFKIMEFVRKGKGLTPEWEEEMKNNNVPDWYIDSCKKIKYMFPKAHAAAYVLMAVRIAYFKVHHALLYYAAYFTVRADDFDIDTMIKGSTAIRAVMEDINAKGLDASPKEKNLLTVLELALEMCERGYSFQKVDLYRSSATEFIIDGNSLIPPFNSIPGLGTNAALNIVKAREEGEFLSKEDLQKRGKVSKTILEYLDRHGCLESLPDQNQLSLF
# Chain of UniProt Q8WZA2 (Q8WZA2 whole entry, looked up): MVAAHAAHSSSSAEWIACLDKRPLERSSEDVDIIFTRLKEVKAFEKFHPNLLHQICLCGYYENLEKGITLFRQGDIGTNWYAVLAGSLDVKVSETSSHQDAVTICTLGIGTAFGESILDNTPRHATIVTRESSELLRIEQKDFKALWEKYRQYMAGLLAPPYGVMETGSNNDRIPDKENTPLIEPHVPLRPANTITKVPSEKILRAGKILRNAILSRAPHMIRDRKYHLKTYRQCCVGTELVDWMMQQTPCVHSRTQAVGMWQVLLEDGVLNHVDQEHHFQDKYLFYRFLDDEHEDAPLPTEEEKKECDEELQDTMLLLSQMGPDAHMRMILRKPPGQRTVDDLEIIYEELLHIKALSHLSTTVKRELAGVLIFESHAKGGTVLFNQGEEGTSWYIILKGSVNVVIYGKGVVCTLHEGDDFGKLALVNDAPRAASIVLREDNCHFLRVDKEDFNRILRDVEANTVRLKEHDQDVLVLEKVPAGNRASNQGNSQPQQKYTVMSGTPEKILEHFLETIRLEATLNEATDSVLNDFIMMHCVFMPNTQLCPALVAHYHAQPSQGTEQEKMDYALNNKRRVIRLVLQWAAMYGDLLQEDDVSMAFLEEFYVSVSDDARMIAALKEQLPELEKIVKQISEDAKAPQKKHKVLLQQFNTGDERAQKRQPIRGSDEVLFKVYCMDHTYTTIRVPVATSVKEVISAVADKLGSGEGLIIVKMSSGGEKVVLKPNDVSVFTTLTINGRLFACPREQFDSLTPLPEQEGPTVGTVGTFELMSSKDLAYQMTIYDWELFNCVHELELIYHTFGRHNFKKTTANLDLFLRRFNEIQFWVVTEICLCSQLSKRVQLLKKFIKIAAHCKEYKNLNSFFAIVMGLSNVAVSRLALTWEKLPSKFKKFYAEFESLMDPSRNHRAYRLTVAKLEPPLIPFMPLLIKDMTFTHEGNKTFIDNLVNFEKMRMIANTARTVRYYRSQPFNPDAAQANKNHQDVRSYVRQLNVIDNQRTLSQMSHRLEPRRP
smiles,measurement,setting,value
C(=C\c1ccccc1)/CN1CCN(C(c2ccccc2)c2ccccc2)CC1,Potency,[1],"inconclusive [inhibitor, partial curve]"
same,Potency,[2],inactive
same,"activity change, negative = inhibition",[3],inactive: -7.46%
CN1CCc2cccc3c2[C@H]1Cc1ccc(O)c(O)c1-3,Potency,[4],active: 12.6 µM
CC(=O)NC1=NN(C(C)=O)C(C)(c2ccccc2)S1 (stereo not given),Potency,[5],"inconclusive [inhibitor, full curve]"
CCN(CC)CCOc1ccc2c(c1)C(=O)c1cc(OCCN(CC)CC)ccc1-2,Potency,[6],"inconclusive [cytotoxic, single point]"
same,Potency,[7],"inconclusive [cytotoxic, single point]"
same,Potency,[8],"inconclusive [cytotoxic, single point]"
C[C@@H](O[C@H]1OCCN(Cc2n[nH]c(=O)[nH]2)[C@H]1c1ccc(F)cc1)c1cc(C(F)(F)F)cc(C(F)(F)F)c1,Potency,[9],active: 11.8 µM
CCN(CC)CCCCNc1ncc2c(n1)N(C)C(=O)N(c1c(Cl)c(OC)cc(OC)c1Cl)C2,Potency,[10],"inconclusive [cytotoxic, partial curve]"
same,Potency,[11],inactive
COc1ccc(Cc2cnc(N)nc2N)cc1OC,Potency,[12],active: 3.55 µM
CO[C@H]1C=CO[C@@]2(C)Oc3c(C)c(O)c4c(O)c(c(/C=N/N5CCN(C)CC5)c(O)c4c3C2=O)NC(=O)/C(C)=C\C=C[C@H](C)[C@H](O)[C@@H](C)[C@@H](O)[C@@H](C)[C@H](OC(C)=O)[C@@H]1C,Potency,[13],"inconclusive [inhibitor, partial curve]"
same,Potency,[14],active: 44.1 µM
NC1CCN(c2nc3c(cc2F)c(=O)c(C(=O)O)cn3-c2ccc(F)cc2F)C1 (stereo not given),Potency,[15],"inconclusive [inhibitor, single point]"
same,Potency,[16],"inconclusive [inhibitor, single point]"
CCNC(=O)Nc1ccc(-c2nc3c(c(N4CCOC[C@@H]4C)n2)CCN(c2ncccn2)C3)cc1,Potency,[17],active: 0.058 µM
COC[C@H](NC(=O)c1cnc(C)s1)C(=O)N[C@@H](COC)C(=O)N[C@@H](Cc1ccccc1)C(=O)[C@@]1(C)CO1,Potency,[18],active: 0.0369 µM
same,Potency,[19],active: 0.0743 µM
same,Potency,[20],active: 0.0935 µM
